# Data taken from the supplement of paper PMC8728848.
# The list shows a part of the results.
# B1: Epa13 (Candida glabrata) (protein)
# chain: MGSSHHHHHHSSGLVPRGSHMASDSSENGYAHGCSPSIRAKLKPGLSMEIYSYALRPTDDHCWDSAYLDPMFPRTGYLTHKLLGKAEGIIGPLNFLAKNPACIPAVSTLPLAFHFPKPFTITNFTMLLYGYLSPKKTGKYTFKLLADDLLLMNFGADNAFDCCSHDATKDNIGEYVAYSVWPGVNKNVTVYLESGIYYPLRLFFNNRDAIAQLDFAYYFNDSPIRQTDFSGMFFSIPDSVKCPANI
# How the values were obtained:
# Experiment in all cases: glycan array binding signal (z-score within array); higher = stronger binding
# Settings in all cases: glycan notation: IUPAC condensed, linker removed
# Fuc(a1-3)GlcNAc = biological target: Fuc(a1-3)GlcNAc
# Method in brief: (§1)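 Glycan array data were curated from 3228 arrays in the Consortium for Functional Glycomics database and kept only where the protein sequence was available. Glycan names were converted to IUPAC-condensed notation, and columns mapping to the same glycan were averaged. The binding signal is a within-array Z-score, averaged across arrays of the same protein sequence at different concentrations or buffers and across linkers. Negative Z-scores can be read as non-binding.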
# [1] = biological target: Fuc(a1-3)[Gal(b1-4)]Glc6S
# Method in brief: as §1
# [2] = biological target: Fuc(a1-3)[Gal(b1-4)]GlcNAc
# Method in brief: as §1
# [3] = biological target: Fuc(a1-3)[Gal(b1-4)]GlcNAc(b1-2)Man
# Method in brief: as §1
# [4] = biological target: Fuc(a1-3)[Gal(b1-4)]GlcNAc(b1-2)Man(a1-3)[Fuc(a1-3)[Gal(b1-4)]GlcNAc(b1-2)Man(a1-6)]Man(b1-4)GlcNAc(b1-4)GlcNAc
# Method in brief: as §1
# [5] = biological target: Fuc(a1-3)[Gal(b1-4)]GlcNAc(b1-2)Man(a1-3)[Fuc(a1-3)[Gal(b1-4)]GlcNAc(b1-2)Man(a1-6)]Man(b1-4)GlcNAc(b1-4)[Fuc(a1-6)]GlcNAc
# Method in brief: as §1
# [6] = biological target: Fuc(a1-3)[Gal(b1-4)]GlcNAc(b1-3)Gal(b1-3)[Fuc(a1-4)]GlcNAc
# Method in brief: as §1
# [7] = biological target: Fuc(a1-3)[Gal(b1-4)]GlcNAc(b1-3)Gal(b1-4)[Fuc(a1-3)]GlcNAc
# Method in brief: as §1
# [8] = biological target: Fuc(a1-3)[Gal(b1-4)]GlcNAc(b1-3)Gal(b1-4)[Fuc(a1-3)]GlcNAc(b1-3)Gal(b1-4)[Fuc(a1-3)]GlcNAc
# Method in brief: as §1
# [9] = biological target: Fuc(a1-3)[Gal(b1-4)]GlcNAc(b1-3)GalNAc
# Method in brief: as §1
# [10] = biological target: Fuc(a1-3)[Gal(b1-4)]GlcNAc(b1-6)GalNAc
# Method in brief: as §1
# [11] = biological target: Fuc(a1-3)[Gal(b1-4)]GlcNAc(b1-6)[Gal(b1-3)GlcNAc(b1-3)]Gal(b1-4)Glc
# Method in brief: as §1
# [12] = biological target: Fuc(a1-3)[Gal(b1-4)]GlcNAc6S
# Method in brief: as §1
# [13] = biological target: Fuc(a1-3)[Gal3S(b1-4)]Glc
# Method in brief: as §1
# [14] = biological target: Fuc(a1-3)[Gal3S(b1-4)]GlcNAc
# Method in brief: as §1
# [15] = biological target: Fuc(a1-3)[Gal3S(b1-4)]GlcNAc6S
# Method in brief: as §1
# [16] = biological target: Fuc(a1-3)[GalNAc(b1-4)]GlcNAc
# Method in brief: as §1
# [17] = biological target: Fuc(a1-3)[GalNAc(b1-4)]GlcNAc6S
# Method in brief: as §1
# Fuc(a1-4)GlcNAc = biological target: Fuc(a1-4)GlcNAc
# Method in brief: as §1
# Fuc(b1-3)GlcNAc = biological target: Fuc(b1-3)GlcNAc
# Method in brief: as §1
# Gal(a1-2)Gal = biological target: Gal(a1-2)Gal
# Method in brief: as §1
# Gal(a1-3)Gal = biological target: Gal(a1-3)Gal
# Method in brief: as §1
# Gal(a1-3)Gal(b1-3)GlcNAc = biological target: Gal(a1-3)Gal(b1-3)GlcNAc
# Method in brief: as §1
# [18] = biological target: Gal(a1-3)Gal(b1-3)GlcNAc(b1-2)Man
# Method in brief: as §1
# [19] = biological target: Gal(a1-3)Gal(b1-3)GlcNAc(b1-2)Man(a1-3)[Gal(a1-3)Gal(b1-3)GlcNAc(b1-2)Man(a1-6)]Man(b1-4)GlcNAc(b1-4)GlcNAc
# Method in brief: as §1
# [20] = biological target: Gal(a1-3)Gal(b1-3)GlcNAc(b1-3)GalNAc
# Method in brief: as §1
# [21] = biological target: Gal(a1-3)Gal(b1-3)GlcNAc(b1-6)GalNAc
# Method in brief: as §1
# [22] = biological target: Gal(a1-3)Gal(b1-3)[Fuc(a1-4)]GlcNAc(b1-2)Man(a1-3)[Gal(a1-3)Gal(b1-3)[Fuc(a1-4)]GlcNAc(b1-2)Man(a1-6)]Man(b1-4)GlcNAc(b1-4)GlcNAc
# Method in brief: as §1
# Gal(a1-3)Gal(b1-4)Glc = biological target: Gal(a1-3)Gal(b1-4)Glc
# Method in brief: as §1
# Gal(a1-3)Gal(b1-4)GlcNAc = biological target: Gal(a1-3)Gal(b1-4)GlcNAc
# Method in brief: as §1
# [23] = biological target: Gal(a1-3)Gal(b1-4)GlcNAc(b1-2)Man
# Method in brief: as §1
# [24] = biological target: Gal(a1-3)Gal(b1-4)GlcNAc(b1-2)Man(a1-3)[Gal(a1-3)Gal(b1-4)GlcNAc(b1-2)Man(a1-6)]Man(b1-4)GlcNAc(b1-4)GlcNAc
# Method in brief: as §1
# [25] = biological target: Gal(a1-3)Gal(b1-4)GlcNAc(b1-3)GalNAc
# Method in brief: as §1
# [26] = biological target: Gal(a1-3)Gal(b1-4)GlcNAc(b1-6)GalNAc
# Method in brief: as §1
# [27] = biological target: Gal(a1-3)Gal(b1-4)[Fuc(a1-3)]GlcNAc
# Method in brief: as §1
# [28] = biological target: Gal(a1-3)Gal(b1-4)[Fuc(a1-3)]GlcNAc(b1-2)Man(a1-3)[Gal(a1-3)Gal(b1-4)[Fuc(a1-3)]GlcNAc(b1-2)Man(a1-6)]Man(b1-4)GlcNAc(b1-4)GlcNAc
# Method in brief: as §1
# Gal(a1-3)GalNAc = biological target: Gal(a1-3)GalNAc
# Method in brief: as §1
# [29] = biological target: Gal(a1-3)[Gal(a1-4)]Gal(b1-4)GlcNAc
# Method in brief: as §1
# [30] = biological target: Gal(a1-4)Gal(b1-3)GlcNAc(b1-2)Man(a1-3)[Gal(a1-4)Gal(b1-3)GlcNAc(b1-2)Man(a1-6)]Man(b1-4)GlcNAc(b1-4)GlcNAc
# Method in brief: as §1
# Gal(a1-4)Gal(b1-4)Glc = biological target: Gal(a1-4)Gal(b1-4)Glc
# Method in brief: as §1
# Gal(a1-4)Gal(b1-4)GlcNAc = biological target: Gal(a1-4)Gal(b1-4)GlcNAc
# Method in brief: as §1
# [31] = biological target: Gal(a1-4)Gal(b1-4)GlcNAc(b1-2)Man(a1-3)[Gal(a1-4)Gal(b1-4)GlcNAc(b1-2)Man(a1-6)]Man(b1-4)GlcNAc(b1-4)GlcNAc
# Method in brief: as §1
# [32] = biological target: Gal(a1-4)Gal(b1-4)GlcNAc(b1-3)Gal(b1-4)Glc
# Method in brief: as §1
# Gal(a1-4)GlcNAc = biological target: Gal(a1-4)GlcNAc
# Method in brief: as §1
# Gal(a1-6)Glc = biological target: Gal(a1-6)Glc
# Method in brief: as §1
binder,measurement,setting,value
B1,glycan array binding signal (z-score),Fuc(a1-3)GlcNAc,-0.4
same,glycan array binding signal (z-score),[1],-0.36
same,glycan array binding signal (z-score),[2],-0.454
same,glycan array binding signal (z-score),[3],-0.124
same,glycan array binding signal (z-score),[4],-0.041
same,glycan array binding signal (z-score),[5],0.905
same,glycan array binding signal (z-score),[6],-0.279
same,glycan array binding signal (z-score),[7],-0.164
same,glycan array binding signal (z-score),[8],-0.429
same,glycan array binding signal (z-score),[9],0.137
same,glycan array binding signal (z-score),[10],0.527
same,glycan array binding signal (z-score),[11],-0.385
same,glycan array binding signal (z-score),[12],0.147
same,glycan array binding signal (z-score),[13],0.372
same,glycan array binding signal (z-score),[14],-0.351
same,glycan array binding signal (z-score),[15],-0.376
same,glycan array binding signal (z-score),[16],0.123
same,glycan array binding signal (z-score),[17],-0.565
same,glycan array binding signal (z-score),Fuc(a1-4)GlcNAc,-0.281
same,glycan array binding signal (z-score),Fuc(b1-3)GlcNAc,-0.246
same,glycan array binding signal (z-score),Gal(a1-2)Gal,-0.328
same,glycan array binding signal (z-score),Gal(a1-3)Gal,0.919
same,glycan array binding signal (z-score),Gal(a1-3)Gal(b1-3)GlcNAc,0.824
same,glycan array binding signal (z-score),[18],1.21
same,glycan array binding signal (z-score),[19],0.899
same,glycan array binding signal (z-score),[20],-0.067
same,glycan array binding signal (z-score),[21],1.13
same,glycan array binding signal (z-score),[22],0.566
same,glycan array binding signal (z-score),Gal(a1-3)Gal(b1-4)Glc,0.096
same,glycan array binding signal (z-score),Gal(a1-3)Gal(b1-4)GlcNAc,0.672
same,glycan array binding signal (z-score),[23],0.125
same,glycan array binding signal (z-score),[24],4.93
same,glycan array binding signal (z-score),[25],0.561
same,glycan array binding signal (z-score),[26],0.545
same,glycan array binding signal (z-score),[27],-0.236
same,glycan array binding signal (z-score),[28],0.591
same,glycan array binding signal (z-score),Gal(a1-3)GalNAc,-0.28
same,glycan array binding signal (z-score),[29],1.47
same,glycan array binding signal (z-score),[30],4.04
same,glycan array binding signal (z-score),Gal(a1-4)Gal(b1-4)Glc,3.52
same,glycan array binding signal (z-score),Gal(a1-4)Gal(b1-4)GlcNAc,4.15
same,glycan array binding signal (z-score),[31],5.18
same,glycan array binding signal (z-score),[32],1.06
same,glycan array binding signal (z-score),Gal(a1-4)GlcNAc,7.08
same,glycan array binding signal (z-score),Gal(a1-6)Glc,13.2
